Hit rate of the full screen: of about 110,000 compounds, about 230 (0.21%) showed an effect of 50% or more. This is one part of the list.
biological target: DPAP1 (Plasmodium falciparum, UniProt Q8IIJ9); assay: primary screen, percent inhibition; read by cleavage of a fluorogenic dipeptide substrate; higher = more effect of the substance; design: species or system P. falciparum D10 trophozoite lysates; single well
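Further: 30 min substrate incubation versus DMSO and 10 µM JCP410 controls.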

Chain of DPAP1 (Q8IIJ9 whole entry, looked up): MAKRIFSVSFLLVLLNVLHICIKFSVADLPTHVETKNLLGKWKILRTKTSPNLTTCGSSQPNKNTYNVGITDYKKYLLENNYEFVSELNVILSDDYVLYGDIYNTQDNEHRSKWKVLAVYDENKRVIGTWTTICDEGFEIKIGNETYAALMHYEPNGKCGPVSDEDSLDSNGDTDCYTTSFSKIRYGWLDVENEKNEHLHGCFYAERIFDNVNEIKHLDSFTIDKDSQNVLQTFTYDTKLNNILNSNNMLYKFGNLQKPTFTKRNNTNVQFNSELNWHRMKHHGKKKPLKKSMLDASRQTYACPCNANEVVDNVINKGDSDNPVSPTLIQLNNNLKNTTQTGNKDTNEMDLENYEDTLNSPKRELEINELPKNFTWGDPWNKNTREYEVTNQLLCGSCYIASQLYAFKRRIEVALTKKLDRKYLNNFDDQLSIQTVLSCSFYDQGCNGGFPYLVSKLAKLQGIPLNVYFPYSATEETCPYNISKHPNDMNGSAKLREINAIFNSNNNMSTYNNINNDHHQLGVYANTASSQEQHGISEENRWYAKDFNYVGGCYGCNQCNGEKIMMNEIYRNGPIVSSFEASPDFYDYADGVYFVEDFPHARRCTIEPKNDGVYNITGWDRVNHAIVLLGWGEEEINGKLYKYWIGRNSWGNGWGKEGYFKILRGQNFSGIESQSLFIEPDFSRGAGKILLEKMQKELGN

SMILES | % Inhibition @ 10 uM
O=C(c1ccccc1[N+](=O)[O-])N1CCCCCC1 | -8.39%
COc1cccc(C2C(C(=O)c3ccccc3)=C(O)C(=O)N2CCN2CCOCC2)c1 (centres unmarked) | 0.205%
CC1CCCN(CCCNC(=O)c2nn(C)c3c2CS(=O)(=O)c2ccccc2-3)C1 (centres unmarked) | -0.495%
C=CCn1c(SCC(=O)Nc2ncc3c(n2)CC(c2ccccc2)CC3=O)nnc1-c1ccccc1 (centres unmarked) | -1.47%
CCOc1ccccc1NC(=O)C1=C(C)NC(=O)NC1c1ccccc1Br (centres unmarked) | -2.6%
Cc1nc2sccn2c1-c1csc(Nc2ncccn2)n1 | -0.711%
CC1(C)CC(=O)C2=C(C1)NC(=O)CC2c1ccccc1 (centres unmarked) | -2.2%
O=C(O)c1ccc(-n2c(S)nnc2-c2ccc(Br)cc2)cc1 | -1.24%
COc1cc(OC)c(CN2CCN(C)CC2)cc1Br | 3.1%
CCOC(=O)c1c(CN(C)C)n(C)c2cc(Br)c(O)cc12 | 0.708%
COCc1cc(O)n2nc(Cc3ccccc3)c(-c3ccc(Cl)cc3)c2n1 | -1.66%
NC(=O)C1CCN(C2CCCCCCC2)CC1 | -5.44%
Cn1c2ccccc2c2c(C(=O)N3CCN(Cc4ccccc4)CC3)cn(C3CCCC3)c(=O)c21 | 3.48%
CC1CC(C)CN(C(=O)c2cc3sccc3n2C)C1 (centres unmarked) | 0.291%
CCOCCCNCc1c(Cl)cccc1Cl | 0.387%
COc1ccc(CNC(=O)c2ccc(Br)o2)cc1 | 3.67%
COc1ccc(/N=C/c2c(C)nn(-c3ccccc3)c2S)cc1 | -5.34%
Cc1nc2ccccc2c2oc(C(=O)NCCCN3C(C)CCCC3C)cc12 (centres unmarked) | -0.0115%
CCCCN(C)C(=O)Cn1ncc2c3ccccc3n(C)c2c1=O | -1.92%
CCN(CC)C(=O)Cn1cc(SCc2ccccc2F)c2ccccc21 | 1.39%
O=C(Nc1ccc([N+](=O)[O-])cc1)c1c(F)cccc1F | -4.08%
Cc1nc(SCC(=O)N2CCC(C)CC2)c2c3c(sc2n1)CCC3 | -0.545%
CCC(C)(C)C1CCc2c(sc(NC(=O)CCC(=O)O)c2C#N)C1 (centres unmarked) | 2.36%
CCCC1=C(C(=O)OCC)C(c2ccc3ccccc3c2)C(C#N)=C(N)O1 (centres unmarked) | 4.66%
COc1cc(NC(=O)c2scc3c2OCCO3)c(OC)cc1Cl | 0.316%
COc1ccccc1CN=C(N)N | 1.63%
CCCC1CCc2c(sc(NC(=O)CCCC(=O)O)c2C#N)C1 (centres unmarked) | 1.4%
Cc1cc(O)c(C(=O)/C=C/c2ccccc2Br)c(=O)o1 | -3.03%
O=C(c1nn2c(C(F)(F)F)cc(-c3ccco3)nc2c1Br)N1CCCC1 | 0.907%

From PMC6919601, “Identification of Plasmodium dipeptidyl aminopeptidase allosteric inhibitors by high throughput screening” (PLoS ONE, 2019)
